Laboratory results published in the supplement of paper PMC3334620.
Whole data set: some 33,000 sequences, median “E-score (-0.5 to 0.5)” near -0.016, cut for the highest 2% near 0.31. This is one part of the list.

Each sequence was assayed against Cst6 (UniProt P40535) (assay: PBM E-score (8-mer binding enrichment) (E-score (-0.5 to 0.5)); higher = stronger / more preferred TF binding; most listed sequences are background and not binding sites). Conditions: protein concentration: 200 nM; construct: GST-DNA-binding domain.
Method: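 Universal 'all 10-mer' protein binding microarrays (Agilent AMADID 015681) probed with GST-tagged S. cerevisiae TFs (full-length or DBD) made by in vitro transcription/translation (PURExpress), about 100-200 nM. Bound TF was detected with fluorescent anti-GST. Each ungapped 8-mer (which stands for itself and its reverse complement) is scored by the PBM enrichment score (E-score), a modified Wilcoxon-Mann-Whitney statistic from -0.5 to +0.5, computed with the Universal PBM Analysis Suite. Scale: above 0.35 generally sequence-specific binding.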

Sequence	PBM E-score
AAGTTGAA	0.108
CCATACTC	-0.219
ATGTCTCG	-0.136
AGAACCTA	-0.106
AGTTCAAG	0.118
ACCATCTA	-0.207
GCCTATGA	-0.021
AGCGCGCA	0.00679
AATCCCTC	-0.0193
CGAGCTTC	-0.0365
AGCGGCAA	0.137
GAGCCCCA	-0.331
AATTGAAC	0.0107
ACCCCTGG	-0.232
CCATACAG	-0.132
ACTATAGA	-0.0234
GTCACGCA	0.241
ACCACCGG	-0.112
ACTCACTC	0.0755
CAGCAAGC	-0.241
CACCACTC	-0.061
AAGGATGC	0.0365
CCTGCTAG	-0.275
ACATCTCG	0.027
AGGCATTC	-0.135

Sequence	PBM E-score
ATGCGGTC	0.171
AATGAGTG	0.156
CTGATCGC	0.0613
AAGAATCC	-0.0289
CCATGCGA	-0.112
ATCACTAA	0.199
CCCGCCCC	0.118
TAGCTTAA	-0.0115
ACTATGCA	-0.035
TAATATAA	0.358
GAAGCGCC	0.114
GCTGACTA	-0.134
GACGCAAA	0.301
GCGCTGAA	-0.175
AAGAAAAA	0.103
ATGACCTG	0.0198
ACGCACCG	0.0946
CGTTGCGA	-0.00168
CTACTGAG	-0.141
TCCAAAGA	0.0439
CCTCAATA	-0.00327
ATTACTGA	0.255
AAGATGTG	0.0614
GGACTACC	-0.296
ACGCCCAC	0.0218

Sequence	PBM E-score
GGTTGTGA	0.194
TTAGACAA	0.148
GGCGTCTA	0.0648
AAACACCT	0.164
TATCGTGA	0.0604
AGGTGTAC	-0.013
AGTTCCAT	0.0719
GAGTACCA	-0.00811
CACACGCA	-0.203
CACACCGG	-0.195
CCGGTGCG	-0.0389
CAGTGGTC	-0.182
GGTCCTGA	-0.184
GGTAACAC	0.0481
CCTGGTAG	-0.276
CCTTATAC	0.0209
CAGTCACG	-0.0488
CCCGAACC	-0.344
CAAACCAG	-0.0964
CCTAAGCC	-0.363
TAATGCGA	0.137
CTTTCACC	0.0693
ATATACCG	0.112
CGCAGCTA	0.054
AGTACACC	-0.104

Sequence	PBM E-score
ACTCCACT	-0.0896
CTGCCAGA	-0.192
ACAGCTTG	0.0214
ACCGTCCG	-0.187
AATTTTCA	0.124
GACACTCA	0.0662
CCACTCTA	0.00292
AAATATTT	0.246
CTGCTGGC	-0.342
TACAAGGA	0.0984
GGCTCCTA	-0.29
AAATTCTT	0.0859
CTTCACCC	0.0725
TATCTGCA	0.12
ACCTCCCG	-0.23
AATCCGGT	0.0129
CAGGGGAC	-0.334
CGATGGCG	-0.118
CTTGAACA	-0.0112
CAAGAGCC	0.0635
AAGCCGGA	0.00634
AACGTCGC	0.195
CACTGGGC	-0.23
GCTAATCC	0.0353
CAAGATCG	0.0147

Sequence	PBM E-score
CTGTGGAA	-0.0942
CTGTAAGC	0.0489
GGTGCATA	-0.00991
TTGAGAAA	0.173
GCGGACCA	0.0449
ATGTAATA	0.415
AAACAATA	0.296
AGTCTCTC	-0.206
GTCTCGAA	-0.154
ATTGGCAG	-0.165
TATCTTGA	0.0541
CAGCAAAG	-0.0415
ACGCTGCC	-0.168
GACTAGAC	-0.263
CAAACACG	0.199
TGCGCTAA	0.0508
GCCGTTCC	0.242
GAAACCAC	0.0157
GTTACGAA	0.16
ACGTGCAA	0.068
CAGCCCGC	-0.322
CGCTCCTC	-0.265
TAACCAGA	-0.0457
ACTGCCAT	0.0641
ACAATATA	0.253

Sequence	PBM E-score
CTATGCAA	-0.0537
CTCCAGTA	-0.114
ACGGTACC	-0.0593
ATGTACAA	0.0408
CCACAACA	-0.124
ACATGGAA	-0.0129
ACACCGGT	-0.237
GAGTCACA	0.0692
CGACCAGC	-0.102
ACATTATC	0.165
AATTCCTA	0.138
CTAGGCAG	-0.211
GTCGCAAA	0.0922
ATCCTCTC	-0.189
GGGAGGCA	-0.2
ACAAAGAT	0.135
AGGCTGTA	-0.0214
CGTACCCC	-0.0299
CGTTCCGA	-0.0551
ACCCTACG	-0.147
AGTCATAC	0.144
ACCGGGAT	-0.306
GCACATCC	-0.13
ATATATAA	0.324
AAATTGAC	0.184

Sequence	PBM E-score
CCTTTTAG	-0.128
CCCGTATA	-0.0644
ATGTCTCA	-0.0728
ATATTTTG	0.173
ACTGTGTA	-0.043
AGTTACTC	0.0596
ACGCTATA	-0.0686
TCCTACGA	-0.304
TTCCCGAA	-0.0136
AAGCTCTC	-0.254
AGTGGGGA	-0.326
CATCAGTC	-0.163
ACCTAGGC	-0.198
ACCCCAAC	-0.0575
ACGCAGTG	-0.0619
ACGTGGAT	0.197
CCGAATAG	-0.103
GCTGTGTA	-0.04
CTCTAAGC	0.0116
ACAAAGAC	0.0933
CATAGGGA	-0.00022
CCCCCTCA	-0.373
ATGCGAGC	-0.123
ACTCTGCT	-0.156
CCACACTC	-0.0967

Sequence	PBM E-score
GCACGTAC	-0.00487
ACACTTTC	-0.0648
ATACAAAA	0.214
ATCCTTTA	0.0936
ATTTATGA	0.195
ACGGTTAA	0.194
ATGATCGG	0.1
GTGTATGA	0.186
AGAGGTAT	0.187
CACGCGAA	-0.105
CACAAGTG	-0.12
AATCTGCA	-0.0358
CGCTCCGC	-0.233
CCAGCACA	-0.119
TAGGCTAA	-0.0771
GTAGTGAA	0.0467
GAACAAAA	0.186
TCTTTGAA	0.0646
CACTATCA	0.0489
ATTTCTAG	0.168
ACCCAGGA	-0.249
CCCACATA	-0.18
CAGTTCAA	0.125
AACCAAAA	0.153
CGAGTCAC	-0.0823

Sequence	PBM E-score
CCGCGAGA	-0.218
GAGCGCAA	-0.272
TCGTATCA	0.127
GCGGGTTA	-0.0629
ACAGGCGC	-0.11
AGCAGAAG	-0.17
GAAGGATA	-0.0411
AAATTATC	0.308
CGTTTGAC	-0.00439
GACGTAAC	0.46
GTGTAGGA	-0.188
AGATTGAC	0.17
CGGAGTTC	0.138
AATTGTGA	0.255
AGTCCCAA	-0.202
CGATTCCA	-0.14
AACATTCC	-0.0303
AACCTTTG	-0.0624
GGCCGCCC	-0.203
GGTTAACC	-0.191
AAGCGTCA	0.336
ATGAAACC	0.0795
CGAGGTTC	0.0365
AGGTTACC	0.00222
AATCCTAC	-0.113

Sequence	PBM E-score
CATCAAGC	0.0578
AGTCCAGC	-0.279
ATTCGGCA	0.00283
AGTCTTAA	-0.116
CCATAACA	0.176
ATTTCTAA	0.0348
AGCGCGAC	-0.152
CCCAGAAC	-0.167
ATTGGGTC	0.0483
ACCGCTCG	-0.0484
CTAGCTAA	0.118
GTTGAGTA	0.073
CAGCACGA	-0.173
GAACGGCA	0.352
GCCGCTAC	-0.161
AGTATGTG	-0.0413
CACGTAAC	0.262
GGGATTTA	0.00892
AAGCTGTG	-0.00267
ATGAGCTA	0.0815
ACCATCAT	0.121
GTTAAATA	0.17
TAAGTCTA	-0.216
GCACTGAA	0.00783
ATCAGCTC	0.0985

Sequence	PBM E-score
ATGTAGTA	0.164
CGGCCCCC	-0.278
TGTTGAAA	0.211
CTTTAGGA	-0.0677
CTAACCCA	0.0583
TGTGAGAA	0.0607
TCCACCCA	-0.0754
GAGAGTCA	0.0642
ACGGGATC	-0.0861
TACGTGAA	0.175
CTAAGGGA	-0.203
AGCGGTCC	-0.134
AATGCCTG	-0.165
CTACTCAG	-0.264
GCGGCCTA	-0.243
AACAAGAG	0.00218
CATGCCAC	-0.0308
AAAATTAA	0.115
CTTTCACA	0.106
GCCCTTAA	-0.0936
GAAGGGTC	-0.209
AGCGGCGC	0.107
CGACATCA	0.411
GGGAGCCA	-0.239
AGATAGTA	0.162

Sequence	PBM E-score
AGACATAT	0.179
CACTCGTC	0.143
GAACTACA	-0.0775
GTGATCCA	-0.1
AAAGCCGG	0.0174
CCCGACGG	-0.119
ATAAGTTC	0.00517
TATCGCCA	0.104
CATCACAA	0.239
TATCGACA	0.106
ACAAGTCT	0.0665
ACCGGAGT	-0.141
GGCTTTAC	0.0405
AGGAGAAA	-0.144
CTCTATGA	0.142
AAATTGCG	0.11
AATAGACA	-0.00652
GACCACTA	-0.0607
GTGTACAA	0.178
ATCAGTCA	0.0916
ATGAACTC	0.0354
CTCTTAGC	-0.0589
GAATAACA	0.245
AGGTTTGG	-0.0956
ACAAGTCC	-0.145

Sequence	PBM E-score
ATCTAGAT	-0.0474
CAGTGCCA	-0.186
CTATGTAC	0.00385
GAGACGGC	0.196
CGGCACCA	0.246
GATTAAGA	0.155
GGATCAGA	-0.172
AATACCAA	0.0926
AACTAATC	0.0271
ATTACCAC	0.123
AGGAAAAT	0.0101
AATATATC	0.252
GAAGCTTA	-0.0667
AACTGACA	0.0859
GAACGGTC	-0.223
TCTTTTCA	0.122
ACGCTCCC	-0.0891
AAGCCATA	-0.0493
TATCCGGA	-0.0526
CCACAACG	-0.0524
GCCGTAAA	0.243
CCGGGGCG	-0.191
CAATCGTG	-0.0331
CATCCACG	0.167
GCCATGCA	0.0901

Sequence	PBM E-score
ATTCTTTA	0.173
CAGAGCTG	-0.13
AATCAGAC	0.067
CTGGGAAA	-0.0122
AGTCATAA	0.217
GGAGAAAA	-0.00826
AGATGACA	0.283
TCATCTAA	0.259
AGATTGCG	-0.0616
GCGCGCTA	0.00364
GTATCTCA	0.23
CACCGTCA	0.314
GGTCGAAC	-0.0955
AAGGTCGA	-0.0293
GGTAGTAA	-0.113
CAGTGGCC	-0.153
CCCCTTGC	-0.298
CAAATAGC	0.128
CTCCTGTA	0.0204
